From the supplement of paper PMC12217912
Some of the results follow. The full chains were built here from the parent and the listed change. Values near 0.05 are background.

B1: TEV protease; numbered along this chain (parent)
chain: MGESLFKGPRDYNPISSSICHLTNESDGHTTSLYGIGFGPFIITNKHLFRRNNGTLVVQSLHGVFKVKDTTTLQQHLVDGRDMIIIRMPKDFPPFPQKLKFREPQREERICLVTTNFQTKSMSSMVSDTSCTFPSGDGIFWKHWIQTKDGQCGSPLVSTRDGFIVGIHSASNFTNTNNYFTSVPKNFMELLTNQEAQQWVSGWRLNADSVLWGGHKVFMVKPEEPFQPVKEATQL

Variants of: B1
Assay: raw area under fraction-flipped curve 0-4 h after induction (AUC4h, not background-subtracted), DNA-recorder readout of cleavage of the substrate (dimensionless); higher = more cleavage of the substrate by the protease variant
Settings: temperature: 34 °C; time window: 0-4 h after rhamnose induction
Description: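 In vivo DNA recorder in E. coli TOP10(DE3) ΔrhaA at 34 °C. Each TEVp single-site mutant (parent TEVp 0) is paired with a single-site variant of the 7-mer TEVs (canonical ENLYFQ|S). The substrate sits between flexible linkers in a Bxb1-sfGFP-TEVs-SsrA fusion, so cleavage stabilises Bxb1 and speeds flipping of a recombination array, read by NGS. The value is the raw area under the fraction-flipped curve over 0-4 h after rhamnose induction (AUC4h), with ≥20 reads per time point. It is not background-subtracted; inactive controls average about 0.047.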
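Also: Bxb1 expression induced with 0.2% (w/v) L-rhamnose at OD600 near 0.5, cultures sampled hourly, flipped fraction per protease–substrate barcode pair counted by paired-end Illumina sequencing.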

Row | Variant | area with substrate CNLYFQS | area with substrate DNLYFQS | area with substrate FNLYFQS | area with substrate NNLYFQS | area with substrate SNLYFQS | area with substrate VNLYFQS | area with substrate HNLYFQS | area with substrate INLYFQS | area with substrate KNLYFQS | area with substrate LNLYFQS | area with substrate QNLYFQS | area with substrate TNLYFQS | area with substrate YNLYFQS | area with substrate MNLYFQS | area with substrate WNLYFQS | area with substrate GNLYFQS | area with substrate PNLYFQS | area with substrate RNLYFQS
1 | N178I | 0.0552 | 0.048 | 0.0362 | 0.0495 | 0.0629 | 0.0579 |  |  |  |  |  |  |  |  |  |  |  | 
2 | T159Y | 0.0558 |  | 0.0601 |  | 0.0643 |  | 0.0607 | 0.0385 | 0.0617 | 0.063 | 0.0657 | 0.0402 | 0.0554 |  |  |  |  | 
3 | T159G | 0.0156 |  | 0.0611 | 0.0533 | 0.0595 | 0.067 |  |  | 0.0609 |  |  | 0.0598 |  | 0.0738 | 0.0666 |  |  | 
4 | T159E | 0.062 |  |  | 0.0857 | 0.0682 |  | 0.0393 | 0.0539 | 0.0761 | 0.0664 |  |  | 0.0795 | 0.0672 | 0.0661 | 0.0768 | 0.0686 | 
5 | N177V | 0.122 |  | 0.0862 |  | 0.103 |  | 0.0732 | 0.087 |  | 0.0855 |  | 0.0833 | 0.0881 | 0.0989 | 0.0707 | 0.145 | 0.134 | 
6 | K185P | 0.0789 |  | 0.0691 |  | 0.0698 |  |  |  |  | 0.0675 |  |  | 0.0623 | 0.0723 | 0.0515 |  | 0.0683 | 
7 | T181G | 0.0693 |  | 0.0683 | 0.0596 |  | 0.0588 |  |  |  | 0.0547 |  | 0.0528 |  | 0.0496 | 0.0516 | 0.058 | 0.0553 | 
8 | S158H | 0.0425 |  |  |  | 0.0436 |  | 0.0587 |  | 0.0629 | 0.0448 |  | 0.0503 | 0.0421 |  | 0.0437 | 0.0286 | 0.0569 | 
9 | L191T | 0.0516 | 0.0287 | 0.0457 | 0.0409 | 0.0523 |  | 0.0598 | 0.048 | 0.0754 | 0.0532 |  | 0.0559 | 0.0535 | 0.0666 | 0.0435 |  | 0.0631 | 0.0081
10 | L191I | 0.0738 |  |  |  |  |  | 0.0574 | 0.0336 |  |  |  |  |  | 0.0656 | 0.0656 |  | 0.0627 | 
11 | S182W | 0.0536 | 0.0578 |  |  |  | 0.0474 | 0.0523 |  |  | 0.0687 |  |  | 0.056 | 0.0524 | 0.0503 | 0.0676 | 0.0774 | 
12 | I164H | 0.0531 |  |  |  | 0.0496 | 0.0413 |  |  | 0.0523 |  |  |  |  | 0.0591 |  | 0.0467 | 0.076 | 
13 | I164L | 0.052 |  | 0.0577 | 0.0686 |  |  | 0.0647 | 0.065 | 0.0754 | 0.0608 |  | 0.0576 | 0.0437 |  | 0.0548 | 0.0548 | 0.0685 | 
14 | I164E | 0.0355 |  | 0.0591 |  | 0.0557 |  | 0.0476 | 0.0484 | 0.0371 | 0.0599 |  | 0.0372 | 0.0638 | 0.0413 | 0.0481 |  | 0.0525 | 0.0669
15 | V165D | 0.0493 |  | 0.047 |  | 0.0452 |  | 0.0402 |  | 0.0437 |  | 0.0544 | 0.0639 |  |  | 0.045 | 0.0533 | 0.0519 | 0.0595
16 | G166Q | 0.0523 |  | 0.0382 | 0.0519 |  | 0.0503 | 0.0629 |  |  | 0.0608 |  |  |  | 0.0263 | 0.0498 |  |  | 0.0461
17 | G166S | 0.0449 |  | 0.0602 | 0.0444 | 0.0669 |  | 0.0531 |  |  | 0.0287 |  | 0.0525 |  |  | 0.0463 | 0.0334 |  | 

Row | Variant | area with substrate CNLYFQS | area with substrate DNLYFQS | area with substrate FNLYFQS | area with substrate NNLYFQS | area with substrate SNLYFQS | area with substrate VNLYFQS | area with substrate HNLYFQS | area with substrate INLYFQS | area with substrate KNLYFQS | area with substrate LNLYFQS | area with substrate QNLYFQS | area with substrate TNLYFQS | area with substrate YNLYFQS | area with substrate MNLYFQS | area with substrate WNLYFQS | area with substrate GNLYFQS | area with substrate PNLYFQS | area with substrate RNLYFQS
18 | G166T | 0.0279 |  |  |  | 0.051 |  | 0.0432 |  |  |  |  | 0.0833 |  | 0.0396 | 0.0755 | 0.0566 | 0.0549 | 0.0486
19 | F180I | 0.0525 |  | 0.0419 | 0.0473 |  | 0.0565 | 0.0534 | 0.049 | 0.0566 |  |  | 0.0475 | 0.038 |  | 0.052 | 0.0501 |  | 
20 | I167F | 0.0584 |  | 0.0588 | 0.0541 | 0.0652 |  | 0.0579 | 0.0597 |  | 0.0647 |  | 0.0623 | 0.0442 | 0.0619 | 0.0503 | 0.0591 | 0.0591 | 0.0701
21 | E189D | 0.061 |  | 0.105 |  |  | 0.0743 | 0.0743 | 0.0624 |  |  |  | 0.068 | 0.0599 | 0.0644 | 0.0578 | 0.0792 |  | 
22 | E189V | 0.0833 |  | 0.0533 | 0.062 |  | 0.0596 | 0.088 | 0.0656 |  | 0.0754 |  | 0.0963 |  | 0.0555 |  | 0.0531 |  | 
23 | E189I | 0.074 |  |  | 0.0724 | 0.0687 |  | 0.0515 | 0.0691 | 0.0642 |  |  |  | 0.0558 | 0.0595 | 0.0615 | 0.0601 | 0.0682 | 
24 | V183I | 0.0616 |  |  |  | 0.0761 | 0.0657 |  | 0.0612 |  |  |  |  | 0.0636 |  | 0.0635 | 0.059 | 0.0749 | 
25 | V183C | 0.0649 |  | 0.0697 |  | 0.0672 |  | 0.0829 | 0.0656 | 0.0554 | 0.0651 |  |  | 0.0566 | 0.0627 | 0.0141 | 0.12 | 0.048 | 
26 | M188C | 0.118 | 0.0722 |  | 0.0728 |  |  | 0.07 | 0.0697 |  | 0.0802 |  |  |  |  | 0.0564 |  | 0.0563 | 
27 | M188L | 0.0789 |  | 0.0745 |  | 0.0504 |  | 0.0564 |  | 0.0584 |  |  | 0.0601 |  | 0.0687 | 0.0571 | 0.0717 | 0.06 | 
28 | M188T | 0.0654 |  |  | 0.0784 | 0.0612 | 0.0431 | 0.063 | 0.0739 |  | 0.0657 | 0.0643 | 0.0714 |  | 0.0817 |  | 0.0734 | 0.0733 | 
29 | S169A | 0.0655 |  |  | 0.0601 | 0.0658 |  | 0.0593 | 0.0636 | 0.0643 | 0.0611 |  | 0.0713 | 0.0508 | 0.0692 | 0.0441 |  | 0.0578 | 
30 | S169C | 0.0601 |  |  |  |  |  | 0.0658 |  | 0.0775 |  |  | 0.0489 |  |  | 0.0648 | 0.0771 | 0.0422 | 0.0393
31 | S169N | 0.0514 |  | 0.0471 |  | 0.0493 |  | 0.0553 | 0.04 |  | 0.0546 | 0.0577 | 0.0565 | 0.0532 |  |  |  | 0.0629 | 
32 | G162H | 0.0643 |  | 0.0569 | 0.0599 | 0.0634 | 0.0696 | 0.073 |  | 0.0785 | 0.0588 | 0.0585 | 0.0595 | 0.0665 |  | 0.0667 | 0.0577 | 0.0708 | 
33 | S171G | 0.056 |  |  | 0.0486 | 0.0229 |  |  | 0.0734 | 0.0699 |  |  | 0.062 |  | 0.0356 |  | 0.0538 | 0.0553 | 
